# Measured values from PubChem BioAssay AID1508623 (National Center for Advancing Translational Sciences (NCATS), 2021).
# About 450 (0.94%) of roughly 48,000 compounds were called active. Inconclusive results (about 19%) are left out. Calls come from the whole dose curve; as a rule, active = well fitted inhibition curve with a large enough effect; inconclusive = small, poorly fitted or top-dose-only effect; inactive = no such curve, though single readings can be large or run the other way. This is one part of the list.
# Experiment: Primary qHTS for Identification of Small Molecule Inhibitors of Huntingtin Promoter Activity; note: nearly all actives have a fitted effect of over 50% in size
# Conditions: HEK293 HTT promoter firefly luciferase reporter (activity 0% = vehicle and -100% = no light), 24 h; series mostly up to 57.5 µM; activity change, negative = inhibition: at the top concentration
# Procedure, shortened: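 Firefly luciferase readout (Dual-Glo, 10 min RT) after 24 h, 37 °C compound exposure (final up to 57.5 uM) of HEK293 reporter cells cultured 24 h beforehand; PTC124 at 50 uM final as control inhibitor; activity scaled vehicle 0%, zero RLU -100%.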
# Potency is the fitted concentration of half-maximal effect.
Structure (SMILES),"activity change, negative = inhibition",Potency
CCOC(=O)N1CCc2c(sc3c2c(=O)n(CCc2ccccc2)c(=O)n3Cc2c(F)cccc2Cl)C1,inactive: -6.17%,
O=C(CN1C(=O)COc2ccc(S(=O)(=O)N3CCCCCC3)cc21)NCc1ccc(F)cc1,inactive: -14.3%,
Cc1cc(C)c2c(CC(=O)N(Cc3ccccc3)C3CCS(=O)(=O)C3)coc2c1 (stereo unspecified),inactive: -26.7%,
Cc1cc(C)cc(OCC(=O)Nc2ccc(-c3nc4ccccc4o3)cc2)c1,inactive: 24.9%,
CCC(=O)N1CCc2cc(S(=O)(=O)NC(C(=O)Nc3ccc(C(C)=O)cc3)C(C)C)ccc21 (stereo unspecified),inactive: 7.87%,
Cn1c(=O)oc2cc(S(=O)(=O)Nc3ccc(C(=O)O)cc3)ccc21,inactive: 0.647%,
Cc1ccc(OCC(=O)Nc2ccc3nc(SCC(=O)N4CCc5ccccc54)sc3c2)cc1,inactive: -9.76%,
COc1ccc(NC(=O)c2cccn2-c2nnc(N3CCCCC3)s2)cc1,inactive: 34.9%,
CCOC(=O)C1CCCN(c2nc3c(S(=O)(=O)c4ccc(C)c(C)c4)nnn3c3ccc(Cl)cc23)C1 (stereo unspecified),inactive: -2.36%,
CCn1c(=O)c2sccc2n2c(CCC(=O)Nc3cc(C)cc(C)c3)nnc12,inactive: -10.4%,
COc1ccc(-c2nc(CS(=O)CC(=O)NCc3ccccc3OC)c(C)o2)cc1 (stereo unspecified),inactive: 4.2%,
COc1ccc2c(c1)CC(C(=O)NCCCN1CCN(c3ccc(F)cc3)CC1)CO2 (stereo unspecified),inactive: -37.4%,
COc1cccc(N2CCN(C(=O)C3CCN(S(=O)(=O)c4ccc5c(c4)oc(=O)n5C)CC3)CC2)c1,inactive: -25.1%,
COc1cccc(C(=O)Nc2cc3c(cc2C(=O)c2ccc(C)cc2)OCCO3)c1,inactive: -6.33%,
COC(=O)Cn1c(=O)c2c(nc3n2CCN3c2ccc(F)cc2)n(C)c1=O,inactive: -11.3%,
O=C(NCc1ccccc1Cl)NCc1noc2ccccc12,inactive: 29.5%,
Cc1ccccc1NC(=O)Cn1c(=O)n(CC2CCC(C(=O)NCCc3ccccc3)CC2)c(=O)c2ccccc21 (stereo unspecified),inactive: -6.68%,
Cc1ccc(CNS(=O)(=O)c2ccc(-c3cc(C(F)(F)F)on3)s2)cc1,inactive: 4.73%,
Nc1c(C(=O)Nc2ccccc2)nnn1Cc1ccc(F)cc1Cl,inactive: 60.4%,
Cc1ccc(N2C(=O)[C@@H]3CSC(c4ccc(F)cc4)N3C2=O)cc1 (stereo partly specified),inactive: -33.7%,
CCOc1ccccc1C(=O)Nc1nc2c(s1)CC(C)CC2 (stereo unspecified),inactive: 33.8%,
Cc1ccc(C(=O)Nc2cc3c(cc2N2CCCC2)n(C)c(=O)c(=O)n3C)cc1,inactive: -7.69%,
Cc1nn(C(C)(C)C)c(OC(=O)C(C)(C)C)c1Sc1ccccc1,inactive: -13.9%,
CC(=O)Nc1ccc(NC(=O)Cn2nc(C(=O)Nc3ccc(C)cc3)ccc2=O)cc1,inactive: 5.58%,

Structure (SMILES),"activity change, negative = inhibition",Potency
CCOc1ccc(-c2cc3c(=O)n(CC(=O)NCc4ccc(Cl)cc4)ccn3n2)cc1,inactive: 7.93%,
CCCOc1ccc(Oc2nc(NCC(C)C)nc(N3CCOCC3)n2)nn1,inactive: 14.6%,
O=C(O)CCn1cnc2onc(-c3cc(F)cc(F)c3)c2c1=O,inactive: -17.8%,
CC(C)(C)NC(=O)[C@H]1CC[C@H]2[C@@H]3CC[C@H]4NC(=O)C=C[C@]4(C)[C@H]3CC[C@]12C,inactive: -5.5%,
COc1cccc(NC(=O)C2CCCN(S(=O)(=O)c3ccc4[nH]c(=O)ccc4c3)C2)c1 (stereo unspecified),inactive: -29.7%,
O=C(Nc1ccc(OCc2cc(=O)n3c4c(sc3n2)CCCC4)cc1)c1ccccc1,inactive: -13.9%,
CC1CCc2nc3ncn(Cc4ccccc4F)c(=O)c3cc2C1 (stereo unspecified),inactive: -0.424%,
CCOc1ccc(OCC)c(NS(=O)(=O)c2c(C(=O)N3CCC(C)CC3)c(C)n(C)c2C)c1,inactive: -15.9%,
COc1ccc(N2CC(NC(=O)c3ccc4c(c3)OCO4)CC2=O)cc1 (stereo unspecified),inactive: -10.6%,
COc1ccc(NC(=O)CN(c2ccc(C)cc2)S(=O)(=O)c2cccc3nonc23)cc1OC,inactive: -3.55%,
Cc1ccc(-n2c(SCC(=O)O)nc3sc4c(c3c2=O)CCCC4)cc1,inactive: -2.46%,
CC(C)NC(=O)C1CCC(Cn2c(=O)c3sccc3n(CC(=O)NCc3ccccc3)c2=O)CC1 (stereo unspecified),inactive: -1.67%,
COc1ccc(NC(=O)Cn2cnc3c(oc4ccccc43)c2=O)cc1OC,inactive: 5.28%,
CCOC(=O)c1c(-c2ccccc2)csc1NC(=O)c1cc(-c2ccc(F)cc2)on1,inactive: 0.177%,
O=C(NCc1ccc2c(c1)OCO2)c1ccc2c(c1)N(Cc1ccccc1)C(=O)c1ccccc1S2=O (stereo unspecified),inactive: -6.79%,
CC(C)n1cnc(S(=O)(=O)N2CCCC(C(=O)NCc3ccccc3Cl)C2)c1 (stereo unspecified),inactive: -26%,
CN(c1ccccc1)S(=O)(=O)c1nnc(NC(=O)c2ccccc2)s1,inactive: -7.49%,
CCOc1ccc(C(=O)c2c(N)c(-c3nc(-c4ccc5c(c4)OCO5)cs3)c3ccccn23)cc1,inactive: -1.48%,
COC(=O)Cn1c(=O)c2cccn2c2cccnc21,inactive: -15.8%,
Cc1cc(C(=O)Nc2ccc(C(C)C)cc2)c2c(C)nn(-c3ccccc3)c2n1,inactive: -0.459%,
COc1cccc(CNC(=O)CSc2c3c(nc4cc(Cl)ccc24)CCCC3)c1,inactive: -14.2%,
CN(C)CCCN(C(=O)c1ccc2c(c1)OCCO2)c1nc2ccccc2s1,inactive: -31.8%,
COc1ccc(Cn2c(=O)c3oc4ccccc4c3n(Cc3cccc(C)c3)c2=O)cc1,inactive: -11.8%,
CCOc1ccccc1NC(=O)Cn1cc(C(=O)c2ccc(Cl)cc2)c(=O)c2ccc(C)nc21,inactive: -1.03%,

Structure (SMILES),"activity change, negative = inhibition",Potency
Cc1cccc2c(=O)cc(CSc3ccccc3NC(=O)c3cccc(F)c3)[nH]c12,inactive: 3.19%,
COc1ccccc1CNc1ccc(-c2nc(-c3ccco3)no2)cc1[N+](=O)[O-],inactive: -5.64%,
Cc1cc2nn(-c3ccc(F)cc3)nc2cc1NC(=O)c1cccc2ccccc12,inactive: 5.3%,
O=C(Nc1nnc(S(=O)(=O)N2CCOCC2)s1)c1ccccc1Cl,inactive: -13.3%,
Nc1nc(N)c2nc(-c3ccccc3)c(N)nc2n1,inactive: 25.6%,
CC(=O)Nc1ccc(NC(=O)C2CCCN2S(=O)(=O)c2ccc3c(c2)CCCC(=O)N3)cc1 (stereo unspecified),inactive: -7.05%,
COc1ccc(OC)c(CCNC(=O)c2cc3c(=O)oc4ccc(C)cc4c3s2)c1,inactive: -6.19%,
O=C(Nc1ccc2nc(SCc3ccccc3)sc2c1)c1ccccc1F,inactive: -26.3%,
Cc1ccc(OCC(=O)Nc2ccc3c(c2)nc(CCNC(=O)c2ccco2)n3C)cc1,inactive: -17.2%,
COc1ccc(N2CCN(C(=O)CN3C(=O)CSc4c3c(C)nn4-c3ccccc3)CC2)cc1,inactive: -15.9%,
O=C(Nc1ccc2oc(-c3cccnc3)nc2c1)c1ccc(-c2ccc(OC(F)(F)F)cc2)o1,inactive: -21.2%,
Cc1ccccc1N1CC(C(=O)Nc2ccc(Br)cc2)CC1=O (stereo unspecified),inactive: -20.2%,
COCCCNc1nc2cc(OC)c(OC)cc2c2nc(-c3ccccc3)nn12,inactive: -6.14%,
CCn1c(=O)c(=O)n(CC)c2cc(N3CCCCC3)c(NC(=O)c3ccc(Cl)cc3)cc21,inactive: 2.87%,
Cc1nnc(N2CCCC(C(=O)NCc3ccccc3F)C2)c2nn(-c3ccc(Cl)cc3)c(C)c12 (stereo unspecified),inactive: -0.0098%,
COc1ccc(C(=O)NCc2nnc(SCC(=O)Nc3ccccc3)n2-c2ccccc2)cc1,inactive: -1.84%,
COc1cc(Cl)c(C)cc1NC(=O)c1ccc2c(SCC(=O)O)c3c(nc2c1)CCCC3,inactive: 9.35%,
O=C(CSc1n[nH]c(-c2ccccc2)n1)NCCCc1ccccc1,inactive: -24.4%,
CCN(CC)CCNC(=O)c1ccc2c(c1)NC(=O)C(CS(=O)(=O)Cc1cccc(Br)c1)N2 (stereo unspecified),inactive: -7.26%,
COc1ccc(-c2nc3cc(C(C)C)ccc3o2)cc1NC(=O)COc1ccc(C)cc1C,inactive: 1.51%,
O=C(Cn1c(=O)c2ccccc2n(CC(=O)Nc2ccc(F)cc2F)c1=O)NCCc1ccccc1,inactive: -7.17%,
Cc1ccc(C)c(Nc2ncnc3onc(C)c23)c1,inactive: -25.5%,
COc1ccc(NC(=O)CCSc2nc(-c3ccco3)cc(C(F)(F)F)n2)cc1,inactive: -17.5%,
COc1ccc(NC(=O)CSc2ncccc2C(=O)O)cc1OC,inactive: -3.92%,

Structure (SMILES),"activity change, negative = inhibition",Potency
CCN(C(=O)c1cc2c(=O)oc3ccc(C)cc3c2s1)c1cc(OC)ccc1OC,inactive: -33.7%,
CCC1CCCCN1CCCNC(=O)c1ccc2c(c1)N(Cc1ccccc1)C(=O)c1ccccc1S2(=O)=O (stereo unspecified),inactive: -22.3%,
CCn1nc(C)c2c(-c3ccccc3)cc(=O)n(C(C)C(=O)NCc3cccc(OC)c3)c21 (stereo unspecified),inactive: -9.3%,
CCc1ccc(OCCCn2c(-c3ccc(Cl)cc3)nc3ccccc3c2=O)cc1,inactive: -20.6%,
Cc1ccc(-c2nc3scc(CCNS(=O)(=O)c4ccc(F)c(C)c4)n3n2)cc1,inactive: -26.1%,
CCN(CC)c1ccc(NC(=O)c2cc(C)nc3c2c(C)nn3-c2cccc(F)c2)c(C)c1,inactive: -9.11%,
Cc1ccc(Cl)cc1NC(=O)CSc1ccc(C(=O)O)cn1,inactive: -5.74%,
c1ccc(-c2nnc(CN3CCN(c4ccccn4)CC3)o2)cc1,inactive: 4.14%,
Cc1ccc(OCC(=O)OCc2cc(=O)n3nc(C4CCCCC4)sc3n2)cc1C,inactive: -26.6%,
O=C(c1[nH]c2ccccc2c1Sc1ccc(Cl)cc1)N1CCCCC1,inactive: -29.3%,
O=C1CC(c2ccccc2)Sc2nc(-c3ccc(F)cc3)nn21 (stereo unspecified),inactive: 0.177%,
CCOc1ccccc1CNCc1c(C(=O)O)c(C)n(Cc2ccc(Cl)cc2)c1C,inactive: 14.5%,
CCC1CN(C(=O)N2CCC(C(=O)Nc3cc(C)ccc3C)CC2)c2ccccc2O1 (stereo unspecified),inactive: -10.6%,
CCCCOc1ccc(C(=O)CCN2CCCCC2)cc1,inactive: 10.3%,
COc1cc(C2c3c(oc4ccccc4c3=O)C(=O)N2c2nncs2)cc(OC)c1OC (stereo unspecified),inactive: -6.17%,
Cc1cccc(-c2cc(NC(=O)C(C)(C)C)n(-c3ccccc3)n2)c1,inactive: -0.297%,
O=C(COc1ccc(F)cc1)Nc1ccccc1C(=O)OCc1cc(=O)n2nc(C3CC3)sc2n1,inactive: -7.06%,
CCOc1ccc(-c2cn3c(n2)sc2cc(C(=O)NCCCc4ccccc4)ccc23)cc1,inactive: -33.2%,
Cc1nc2nc(SCc3ccc(F)cc3Cl)nn2c(C)c1Cc1ccccc1,inactive: 0.944%,
O=C(CS(=O)(=O)c1cccc2nsnc12)NCc1ccc(Cl)cc1,inactive: -4.36%,
COc1ccc(-c2c(C)nn3c4c(cnc23)C(=O)CC(c2ccccc2)C4)cc1 (stereo unspecified),inactive: -8.95%,
CC(NC(=O)c1ccc(Nc2nc3ccccc3n3nnnc23)cc1)c1ccccc1 (stereo unspecified),inactive: 16.4%,
COc1cccc(N2CC(NC(=O)c3ccc4c(c3)OCO4)CC2=O)c1 (stereo unspecified),inactive: -10.4%,
Cc1nc2nc(-c3ccc(Cl)cc3Cl)nn2c(C)c1CCC(=O)Nc1ccc(F)cc1,,active: 7.94 µM
